According to ChEMBL document CHEMBL4888484, “Replenishing the malaria drug discovery pipeline: Screening and hit evaluation of the MMV Hit Generation Library 1 (HGL1) against asexual blood stage Plasmodium falciparum ,using a nano luciferase reporter read-out” (2022):
The whole screen tested about 150,000 compounds, of which about 540 (0.36%) showed an effect of 50% or more. The list shows a part of the results.

Tested on: Plasmodium falciparum
Assay: Primary screen in NF54 nanoGlo assay, in single point, at 2uM, 72h; a lower Z score goes with more inhibition
Assay type: functional, Erythrocyte
Conditions: timepoint 72 hour

Row | Compound | % Inhibition [%] | Z score
1 | NC(=NCC1CCC1)N1CCN(c2ccccc2F)CC1 | 2 | -0.33
2 | COc1ccc2cc(C(=O)N3CCC(CC(=O)NC4CCCC4)CC3)[nH]c2c1 | -14 | 1.31
3 | CS(=O)(=O)N1CCN(C(=O)N2CCN(c3ccc(C4CC4)nn3)CC2)C1=O | -8 | 1.63
4 | CCn1cc(C(=O)N2CCC[C@H](c3[nH]ncc3-c3ccc(F)cc3)C2)c(C)n1 | 3 | -0.66
5 | CC(C)(C)OC(=O)N[C@@]1(c2noc(C3CCC3)n2)CCOC1 | 0 | 0.01
6 | COc1ccc(CN[C@H]2CCCc3nc(N4CCC(CO)CC4)ncc32)cc1C | -16 | 2.3
7 | O=C(c1ccc(F)c(F)c1F)N1CC[C@H](c2ncon2)C1 | -10 | 1.76
8 | Cc1ccc(C(=O)N2CC(C)CC(C)C2)cc1NCc1c[nH]nc1C (stereo not given) | -1 | 0.17
9 | CCCc1nc(C)c(CNS(=O)(=O)c2cc(-c3ccno3)oc2C)s1 | -16 | 2.74
10 | COc1cc(OC)cc(-n2nnnc2CN(C)CC2CC2)c1 | 4 | -0.8
11 | O=C(N[C@H]1CCCCNC1=O)c1csc2c1CCCC2 | 7 | -0.89
12 | CCOc1ccc(-c2nc(-c3cccc(-c4ccn[nH]4)c3)no2)cc1OCC | -4 | 0.48
13 | OC(CN(Cc1ccccc1)CC1CCOC1)c1ccco1 (stereo not given) | -3 | 0.39
14 | CN(CC(=O)N1CCC(O)CC1)Cc1ccc(Oc2ccccc2)o1 | -10 | 0.89
15 | Cc1nccc(CNC(=O)c2cc(Br)cc3[nH]cnc23)n1 | -9 | 0.85
16 | CCOCC1(CNc2nc3c(s2)c(C)nn3C)CCC1 | 1 | -0.14
17 | COc1ccccc1N1CCN(C(=O)c2cn3c4c(cccc4c2=O)CCC3)CC1 | 10 | -1.39
18 | CN(C)c1cccc(Oc2nnnn2[C@H]2CO[C@H]3[C@@H]2OC[C@@H]3NC(=O)COc2ccccc2)c1 | -11 | 1.47
19 | Cc1cccc(NC(=O)c2cc(N3CCCC3)ncn2)c1C | 0 | 0.07
20 | CCCCCc1nnc(NC(=O)NC[C@H](O)c2nccn2C)s1 | -1 | 0.13
21 | Cc1nc(C(=O)N2CCCCCCC2)cs1 | -2 | 0.37
22 | CCOCCN(C)C(=O)C[C@H](C)c1ccc(F)cc1 | -1 | 0.14

Row | Compound | % Inhibition [%] | Z score
23 | C[C@@H](C(=O)Nc1nncs1)N(C)C/C=C/c1ccccc1 | 12 | -1.59
24 | O=C(c1ccc2c(c1)COCO2)N(CC(F)(F)F)C1CCCC1 | -8 | 1.06
25 | COc1cccc(CN2CCCN(c3ccc(NC(=O)C4CCC4)cc3)C2=O)c1 | -8 | 0.76
26 | CCc1nn(C)c(Cl)c1CN1CCC2(CC1)CNc1ccccc12 | -2 | 0.36
27 | OC1CCCCC1Nc1cnc2ccccc2n1 (stereo not given) | 0 | 0.01
28 | CCc1cc(C(=O)N2C[C@H]3CC[C@@H](C2)N(Cc2c(C)noc2C)C3=O)n(C)n1 | -11 | 1.06
29 | CCN1CCOC(C(=O)N2CCCC(COc3ccccc3)C2)C1 (stereo not given) | -11 | 1.91
30 | O=C(NCc1ccc(N2CCOCC2)cc1)c1cn(Cc2c(F)cccc2F)nn1 | -15 | 2.12
31 | CCN1C(=O)CO[C@H](C(=O)N2CC(=O)Nc3ccccc3C2)[C@H]1c1cnn(C)c1 | -24 | 2.62
32 | COc1ncccc1C(=O)N1CCC[C@@]2(C1)OC(=O)c1ccccc12 | -6 | 1.18
33 | Cc1nc(NC2CCC3(CC2)NC(=O)NC3=O)ccc1C#N (stereo not given) | -3 | 0.39
34 | Brc1ccccc1COc1ccc2ccccc2n1 | 29 | -3.79
35 | Cc1ccc([C@@H]2COCCN2Cc2cccc(C(=O)O)c2Cl)o1 | -3 | 0.55
36 | Cn1cc(-c2nc3ncccc3[nH]2)c(-c2ccc(Oc3ccccc3)cc2)n1 | 3 | -0.48
37 | CS(=O)(=O)N(CCCC(=O)NCc1ccc2c(c1)OCO2)c1ccc(F)cc1 | 39 | -5.62
38 | CCC(C)[C@@H](NC(=O)Nc1ccccc1C)C(=O)OC (stereo not given in full) | -5 | 0.68
39 | COCCS(=O)(=O)NCC1CCCCC1 | -3 | 0.43
40 | COc1ccc(N2Cc3nn(CC(=O)N4CCN(c5ccccc5)CC4)c(=O)n3C2=O)cc1 | -11 | 1.23
41 | COc1cccn([C@@H](C)C(=O)N2CCCC2)c1=O | -9 | 1.33
42 | C=CCN1C[C@@H](C(=O)N2CCn3nc(Cc4ccccc4)cc3C2)CC1=O | 11 | -1.54
43 | O=C(Nc1ccnn1C1CCC1)N[C@H]1C[C@H](c2ccc(F)cc2F)C1 | 13 | -2.43
44 | N#Cc1cc(OCC(F)F)nc2ccccc12 | -5 | 0.76

Row | Compound | % Inhibition [%] | Z score
45 | O=C(NCCOc1ccccc1)c1cn2c(n1)[C@@H](c1ccccc1)N(CC1CC1)CC2 | -4 | 0.5
46 | NC(=O)N1CCCN(CC=Cc2ccc(F)cc2)CC1 | -5 | 0.65
47 | CCOc1ccc(S(=O)(=O)NC2(c3noc(C4CC4)n3)CCCC2)cc1 | -5 | 0.47
48 | CCCN1CCCN(C(=O)c2cccc(-n3cnnn3)c2)CC1 | -1 | 0.14
49 | CC(C)(CNC(=O)COCc1ccccc1Cl)C(N)=O | -2 | 0.32
50 | CN(C)S(=O)(=O)c1cnn(Cc2ccnn2C)c1 | -1 | 0.1
51 | Cc1oc(-c2cc3c(cc2Cl)OCO3)nc1CN1C[C@@H](C)O[C@@H](C)C1 | -18 | 1.94
52 | Cc1cc(C)nc(NC(=O)c2cccc(S(=O)(=O)N3CCCCC3)c2)n1 | -28 | 3.6
53 | O[C@@H]1C[C@H]2CN(Cc3cccnc3)CC3(CN(Cc4ccc(F)cc4)C3)N2C1 | 0 | 0.04
54 | CC(C)Cc1cc(C(=O)N(Cc2ccc3c(c2)OCO3)C2CC2)on1 | 5 | -0.53
55 | O=c1[nH]nc(-c2ccc(O)cc2)n1-c1ccc2c(c1)OCO2 | -1 | 0.14
56 | O=C(NC1CCCCC1)N1CC[C@H]2C(=O)N(Cc3cccc(F)c3)CC(=O)N2CC1 | -6 | 0.75
57 | Cc1cccc(C)c1-n1nnnc1C(C)(C)N1CCN(C(=O)c2ccco2)CC1 | -2 | 0.25
58 | CC(=O)Nc1ccc(-c2ccc(=O)n3c2[C@@H]2C[C@@H](CN(Cc4cccc(C#N)c4)C2)C3)cc1 | 28 | -3.18
59 | CN1CCOC(CS(=O)(=O)NC2CCCc3ccccc32)C1 (stereo not given) | -9 | 1.19
60 | c1cc([C@@H]2NCCc3[nH]cnc32)n(-c2ccncc2)c1 | 5 | -1.03
61 | CS(=O)(=O)N1CC(=O)N(c2cccc(-c3ccccc3)c2)C[C@@H]1Cc1ccccc1 | -10 | 1.19
62 | CCC[C@H]1CN(Cc2cnc(N(C)C)s2)C[C@@H]1C(=O)O | -5 | 0.99
63 | COc1ccc(CCNC(=O)N2CCCC(C3(C)NC(=O)NC3=O)C2)cc1F (stereo not given) | -4 | 0.73
64 | O=C(NCc1cccnc1Oc1ccc(F)c(F)c1)c1n[nH]cc1Cl | -1 | 0.22
65 | Cc1cc(=O)c(C(=O)N2CCCCCC2)c(Cc2cccc(F)c2)n1CCCN1CCOCC1 | -4 | 0.47
66 | CCN1C(=O)CC(CC(=O)N(CC2CCC2)CC2CCCO2)(c2cccc(C(F)(F)F)c2)C1=O (stereo not given) | 6 | -1.17

Row | Compound | % Inhibition [%] | Z score
67 | CC[C@@H](c1ccccn1)N(C)Cc1nnc(C)s1 | -5 | 0.82
68 | COC(=O)[C@@H](OC(=O)c1ccnc(C)n1)C(C)C | 5 | -0.78
69 | CCC(O)C1CCCCN1Cc1cnn(C(C)(C)C)c1 (stereo not given) | 0 | 0.01
70 | O=C(CNC(=O)c1cccc(Cl)c1)NCc1cscn1 | 2 | -0.27
71 | Cc1n[nH]c(C)c1CC(=O)N[C@H]1CCCNC1=O | 6 | -0.89
72 | O=C(Nc1cc(C(F)(F)F)cc(C2CC2)n1)N[C@H]1CCN(C2CCC2)C1=O | -4 | 0.5
73 | CC(C)c1ocnc1Cn1ccnc1-c1cncc(Br)c1 | -9 | 0.96
74 | C[C@@H](CN1CCOCC1)C(=O)N1CCC(Oc2ccc(Cl)cc2)CC1 | -13 | 1.29
75 | CCOC(=O)CNc1nc(NCC(=O)OCC)nc(OC)n1 | -8 | 0.92
76 | NC(=O)CN1CCOc2cc(Br)c(Cl)cc21 | 28 | -3.72
77 | Cc1nc(NC(=O)[C@H](C)N(C)Cc2nccn2C(F)F)sc1C | -6 | 0.79
78 | CC(c1ccc(Cl)cc1Cl)N(C)C(=O)C1CC12CCNCC2 (stereo not given) | -21 | 3.92
79 | COc1ncccc1C(=O)NC1CC2CCC(C1)N2S(C)(=O)=O (stereo not given) | 8 | -1.51
80 | O=C(Cc1ccc(Cl)cc1)N1CCC[C@@](F)(C(=O)NCc2ccncc2)C1 | -11 | 0.93
81 | Cc1cccnc1NC(=O)C1=COCCO1 | -10 | 1.23
82 | CCCC(=O)N[C@H]1CCCN(c2nc(C)ns2)C1 | 1 | -0.19
83 | O=C1Nc2cc(-c3cccc4cc[nH]c34)ccc2C12CCOCC2 | 1 | -0.1
84 | CCn1ccnc1CN1CCc2[nH]cnc2[C@@H]1c1cccn1-c1ncccn1 | 2 | -0.18
85 | O[C@@H](CNc1ccc2ccc(F)cc2n1)C1CCOCC1 | 14 | -1.85
